# Laboratory results as given in the supplement of paper PMC8728848.
# The other results are listed elsewhere or left out.
# B1: Thrombomodulin (Mus musculus) (protein)
# chain: ALAKLQPTGSQCVEHECFALFQGPATFLDASQACQRLQGHLMTVRSSVAADVISLLLSQSSMDLGPWIGLQLPQGCDDPVHLGPLRGFQWVTGDNHTSYSRWARPNDQTAPLCGPLCVTVSTATEAAPGEPAWEEKPCETETQGFLCEFYFTASC
# Key:
# Test in all cases: glycan array binding signal (z-score within array); higher = stronger binding
# Details in all cases: glycan notation: IUPAC condensed, linker removed
# Neu5Ac(a2-8)Neu5Ac = target: Neu5Ac(a2-8)Neu5Ac
# Outline: (§1)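 The binding signal is a Z-score computed within each array and averaged over linkers. Arrays of the same protein sequence at different concentrations or buffers were also averaged together. Data originate from 3228 arrays in the Consortium for Functional Glycomics database, kept only where the protein sequence was available.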
# [1] = target: Neu5Ac(a2-8)Neu5Ac(a2-3)Gal(b1-3)GalNAc(b1-4)[Neu5Ac(a2-3)]Gal(b1-4)Glc
# Outline: as §1
# [2] = target: Neu5Ac(a2-8)Neu5Ac(a2-3)Gal(b1-3)GalNAc(b1-4)[Neu5Ac(a2-8)Neu5Ac(a2-3)]Gal(b1-4)Glc
# Outline: as §1
# [3] = target: Neu5Ac(a2-8)Neu5Ac(a2-3)Gal(b1-4)Glc
# Outline: as §1
# [4] = target: Neu5Ac(a2-8)Neu5Ac(a2-3)Gal(b1-4)GlcNAc
# Outline: as §1
# [5] = target: Neu5Ac(a2-8)Neu5Ac(a2-3)[Gal(b1-3)GalNAc(b1-4)]Gal(b1-4)Glc
# Outline: as §1
# [6] = target: Neu5Ac(a2-8)Neu5Ac(a2-3)[GalNAc(b1-4)]Gal(b1-4)Glc
# Outline: as §1
# [7] = target: Neu5Ac(a2-8)Neu5Ac(a2-8)Neu5Ac
# Outline: as §1
# [8] = target: Neu5Ac(a2-8)Neu5Ac(a2-8)Neu5Ac(a2-3)Gal(b1-4)Glc
# Outline: as §1
# [9] = target: Neu5Ac(a2-8)Neu5Ac(a2-8)Neu5Ac(a2-3)[Gal(b1-3)GalNAc(b1-4)]Gal(b1-4)Glc
# Outline: as §1
# [10] = target: Neu5Ac(a2-8)Neu5Ac(a2-8)Neu5Ac(a2-3)[GalNAc(b1-4)]Gal(b1-4)Glc
# Outline: as §1
# [11] = target: Neu5Ac(a2-8)Neu5Ac(a2-8)Neu5Ac(a2-8)Neu5Ac(a2-3)[GalNAc(b1-4)]Gal(b1-4)Glc
# Outline: as §1
# [12] = target: Neu5Ac(a2-8)Neu5Gc(a2-3)Gal(b1-4)GlcNAc
# Outline: as §1
# [13] = target: Neu5Ac(b2-6)Gal(b1-4)GlcNAc
# Outline: as §1
# Neu5Ac(b2-6)GalNAc = target: Neu5Ac(b2-6)GalNAc
# Outline: as §1
# [14] = target: Neu5Ac9Ac(a2-3)Gal(b1-3)GlcNAc
# Outline: as §1
# [15] = target: Neu5Ac9Ac(a2-3)Gal(b1-4)GlcNAc
# Outline: as §1
# [16] = target: Neu5Ac9Ac(a2-6)Gal(b1-4)GlcNAc
# Outline: as §1
# [17] = target: Neu5Gc(a2-3)Gal(b1-3)GlcNAc
# Outline: as §1
# [18] = target: Neu5Gc(a2-3)Gal(b1-3)[Fuc(a1-4)]GlcNAc
# Outline: as §1
# Neu5Gc(a2-3)Gal(b1-4)Glc = target: Neu5Gc(a2-3)Gal(b1-4)Glc
# Outline: as §1
# [19] = target: Neu5Gc(a2-3)Gal(b1-4)GlcNAc
# Outline: as §1
# [20] = target: Neu5Gc(a2-3)Gal(b1-4)GlcNAc(b1-3)Gal(b1-4)GlcNAc(b1-2)Man(a1-3)[Neu5Gc(a2-3)Gal(b1-4)GlcNAc(b1-3)Gal(b1-4)GlcNAc(b1-2)Man(a1-6)]Man(b1-4)GlcNAc(b1-4)GlcNAc
# Outline: as §1
# [21] = target: Neu5Gc(a2-3)Gal(b1-4)[Fuc(a1-3)]GlcNAc
# Outline: as §1
# [22] = target: Neu5Gc(a2-6)Gal(b1-4)GlcNAc
# Outline: as §1
# Neu5Gc(a2-6)GalNAc = target: Neu5Gc(a2-6)GalNAc
# Outline: as §1
# [23] = target: Neu5Gc(a2-8)Neu5Ac(a2-3)Gal(b1-4)GlcNAc
# Outline: as §1
# [24] = target: Neu5Gc(a2-8)Neu5Gc(a2-3)Gal(b1-4)GlcNAc
# Outline: as §1
# [25] = target: Neu5Gc(a2-8)Neu5Gc(a2-3)Gal(b1-4)GlcNAc(b1-3)Gal(b1-4)GlcNAc
# Outline: as §1
# [26] = target: Neu5Gc(a2-8)Neu5Gc(a2-6)Gal(b1-4)GlcNAc
# Outline: as §1
# [27] = target: Neu5Gc(b2-6)Gal(b1-4)GlcNAc
# Outline: as §1
binder,measurement,setting,value
B1,glycan array binding signal (z-score),Neu5Ac(a2-8)Neu5Ac,0.118
same,glycan array binding signal (z-score),[1],-0.369
same,glycan array binding signal (z-score),[2],-0.021
same,glycan array binding signal (z-score),[3],-0.266
same,glycan array binding signal (z-score),[4],-0.54
same,glycan array binding signal (z-score),[5],0.188
same,glycan array binding signal (z-score),[6],-0.063
same,glycan array binding signal (z-score),[7],-0.27
same,glycan array binding signal (z-score),[8],-0.108
same,glycan array binding signal (z-score),[9],0.169
same,glycan array binding signal (z-score),[10],-0.302
same,glycan array binding signal (z-score),[11],0.028
same,glycan array binding signal (z-score),[12],-0.404
same,glycan array binding signal (z-score),[13],-0.139
same,glycan array binding signal (z-score),Neu5Ac(b2-6)GalNAc,-0.216
same,glycan array binding signal (z-score),[14],-0.212
same,glycan array binding signal (z-score),[15],0.1
same,glycan array binding signal (z-score),[16],0.153
same,glycan array binding signal (z-score),[17],-0.302
same,glycan array binding signal (z-score),[18],0.081
same,glycan array binding signal (z-score),Neu5Gc(a2-3)Gal(b1-4)Glc,-0.117
same,glycan array binding signal (z-score),[19],-0.133
same,glycan array binding signal (z-score),[20],-0.161
same,glycan array binding signal (z-score),[21],-0.057
same,glycan array binding signal (z-score),[22],-0.077
same,glycan array binding signal (z-score),Neu5Gc(a2-6)GalNAc,-0.326
same,glycan array binding signal (z-score),[23],-0.082
same,glycan array binding signal (z-score),[24],-0.438
same,glycan array binding signal (z-score),[25],-0.516
same,glycan array binding signal (z-score),[26],-0.048
same,glycan array binding signal (z-score),[27],0.042
